Reference: the supplement of paper PMC10126150
Values marked as one replicate rest on one cluster of the flow cell; about a third of the high ones do not repeat.
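Further: ATP exposure 15 min at 22 °C before imaging.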

The sequences below were run on ATP (assay: switch fluorescence ratio, 500 uM ATP over buffer (Cy3 cluster intensity, sum of 5 cycles each) (fold (ratio)); higher = stronger signal-on switching upon ATP binding; sequences stand for … in TCGTCGGCAGCGTCAGATGTGTATAAGAGACAGTTTTTTTTTTTTTTTTTTTTTTTTT…TC). Conditions: aptamer strand: ATP DNA aptamer (quencher-CACCTGGGGGAGTATTGCGGAGGAAGG + anchor), 100 nM annealed; ATP concentration: 500 uM; one replicate.
How it was run: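 Switching-strand clusters labelled with Cy3 on a modified Illumina MiSeq flow-cell were annealed to 100 nM quencher-labelled ATP aptamer, imaged in selection buffer, and re-imaged after 15 min with 500 uM ATP at 22 °C. This was done over five cycles with NaOH stripping and re-annealing in between. The fluorescence ratio is summed target-cycle over summed buffer-cycle Cy3 intensity per cluster, averaged per switch-domain sequence, excluding clusters outside 100-1000 RFU.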
In the case of GTGAGAGAGG, the switch fluorescence ratio was 1.01.
In the case of GTGAGCTCGA, the switch fluorescence ratio was 1.01.
Sequence GTGAGGAGTG has a switch fluorescence ratio of 1.01.
With GTGAGGGGCA the switch fluorescence ratio was 1.02.
For GTGAGGGTGT, the switch fluorescence ratio was 1.08.
GTGAGGTCTC showed a switch fluorescence ratio of 0.952.
GTGAGTGCTT gave a switch fluorescence ratio of 1.
GTGAGTTATC was tested, and the switch fluorescence ratio was 1.04.
GTGATAATTA gave a switch fluorescence ratio of 1.03.
In the case of GTGATACCTA, the switch fluorescence ratio was 1.01.
GTGATAGGGT was tested, and the switch fluorescence ratio was 1.03.
GTGATCTTCC was tested, and the switch fluorescence ratio was 2.48.
Work on GTGATGAATC yielded a switch fluorescence ratio of 0.931.
GTGATGGCTT was tested, and the switch fluorescence ratio was 0.98.
With GTGATGTGAG the switch fluorescence ratio was 1.
In the case of GTGATT, the switch fluorescence ratio was 0.997.
With GTGATTACCG the switch fluorescence ratio was 1.04.
In the case of GTGATTACGG, the switch fluorescence ratio was 1.02.
In the case of GTGATTCACA, the switch fluorescence ratio was 1.01.
In the case of GTGATTGGA, the switch fluorescence ratio was 0.995.
For GTGATTGGGT, the switch fluorescence ratio was 0.995.
Sequence GTGCAAACAC has a switch fluorescence ratio of 1.01.
Work on GTGCACATGT yielded a switch fluorescence ratio of 1.05.
In the case of GTGCATTGGG, the switch fluorescence ratio was 1.02.
Work on GTGCCGTGGC yielded a switch fluorescence ratio of 1.
For GTGCGAAAGA, the switch fluorescence ratio was 1.02.
Sequence GTGCGCATGC has a switch fluorescence ratio of 1.12.
Work on GTGCGCGAA yielded a switch fluorescence ratio of 1.02.
GTGCGGGGTC showed a switch fluorescence ratio of 0.969.
Sequence GTGCGGTA has a switch fluorescence ratio of 1.04.
With GTGCGGTCCC the switch fluorescence ratio was 0.998.
With GTGCGTACGT the switch fluorescence ratio was 1.03.
GTGCGTAGAA was tested, and the switch fluorescence ratio was 0.972.
Work on GTGCGTAGGC yielded a switch fluorescence ratio of 0.963.
Sequence GTGCGTAGTA has a switch fluorescence ratio of 1.
In the case of GTGCTACATG, the switch fluorescence ratio was 1.
GTGCTCACAG gave a switch fluorescence ratio of 0.995.
GTGCTCGCGA gave a switch fluorescence ratio of 1.16.
GTGCTTTCTA showed a switch fluorescence ratio of 0.978.
Work on GTGCTTTGC yielded a switch fluorescence ratio of 1.07.
GTGGAAAAGA gave a switch fluorescence ratio of 0.951.
GTGGAAGAGA was tested, and the switch fluorescence ratio was 0.96.
With GTGGACCCCT the switch fluorescence ratio was 1.01.
GTGGAGACC gave a switch fluorescence ratio of 1.03.
GTGGAGATGG was tested, and the switch fluorescence ratio was 1.
GTGGAGGCCT was tested, and the switch fluorescence ratio was 1.
GTGGAGGGGT showed a switch fluorescence ratio of 1.02.
Work on GTGGATAGAA yielded a switch fluorescence ratio of 0.993.
In the case of GTGGATAGCG, the switch fluorescence ratio was 0.987.
GTGGATGCAA gave a switch fluorescence ratio of 1.02.
GTGGATGTGG was tested, and the switch fluorescence ratio was 0.986.
Sequence GTGGCACATT has a switch fluorescence ratio of 1.01.
GTGGCACCTT was tested, and the switch fluorescence ratio was 1.03.
GTGGCAGAAC showed a switch fluorescence ratio of 1.16.
With GTGGCATGTG the switch fluorescence ratio was 1.02.
Work on GTGGCGATAG yielded a switch fluorescence ratio of 1.08.
Work on GTGGCTGGGC yielded a switch fluorescence ratio of 1.03.
GTGGCTGTTA showed a switch fluorescence ratio of 1.
With GTGGCTTCGT the switch fluorescence ratio was 1.
GTGGCTTGAT gave a switch fluorescence ratio of 1.
Sequence GTGGGAAGGA has a switch fluorescence ratio of 1.01.
In the case of GTGGGAGAGA, the switch fluorescence ratio was 0.955.
For GTGGGAGCAG, the switch fluorescence ratio was 1.
In the case of GTGGGAGTCG, the switch fluorescence ratio was 1.02.
GTGGGATGCT was tested, and the switch fluorescence ratio was 1.01.
In the case of GTGGGCACGA, the switch fluorescence ratio was 0.991.
GTGGGCCATT showed a switch fluorescence ratio of 0.921.
GTGGGCCTGG showed a switch fluorescence ratio of 0.977.
GTGGGGCTAC gave a switch fluorescence ratio of 1.03.
Work on GTGGGGTG yielded a switch fluorescence ratio of 1.06.
For GTGGGTGGGC, the switch fluorescence ratio was 0.974.
Work on GTGGGTGTGC yielded a switch fluorescence ratio of 0.994.
For GTGGGTTACC, the switch fluorescence ratio was 0.997.
GTGGTAGAT showed a switch fluorescence ratio of 0.997.
With GTGGTGTGCG the switch fluorescence ratio was 0.941.
Sequence GTGGTTATAC has a switch fluorescence ratio of 1.1.
For GTGGTTGTGA, the switch fluorescence ratio was 0.986.
With GTGGTTGTT the switch fluorescence ratio was 1.01.
Work on GTGTAAAGCG yielded a switch fluorescence ratio of 1.01.
For GTGTACGATC, the switch fluorescence ratio was 1.09.
Sequence GTGTACGTAT has a switch fluorescence ratio of 1.03.
Sequence GTGTACGTTG has a switch fluorescence ratio of 0.984.
Work on GTGTAGTGGG yielded a switch fluorescence ratio of 0.984.
With GTGTATTGTG the switch fluorescence ratio was 0.982.
Sequence GTGTCATGGG has a switch fluorescence ratio of 0.984.
With GTGTCCGGAG the switch fluorescence ratio was 1.08.
GTGTCGTCTG was tested, and the switch fluorescence ratio was 1.01.
Sequence GTGTCGTGTG has a switch fluorescence ratio of 1.04.
Work on GTGTCTGGAC yielded a switch fluorescence ratio of 0.999.
Work on GTGTCTGGTT yielded a switch fluorescence ratio of 0.977.
In the case of GTGTGCGGAG, the switch fluorescence ratio was 0.951.
GTGTGCTCTG showed a switch fluorescence ratio of 1.
GTGTGGCCGT was tested, and the switch fluorescence ratio was 1.06.
For GTGTGGGCAC, the switch fluorescence ratio was 1.02.
With GTGTGTAACG the switch fluorescence ratio was 0.97.
Work on GTGTGTTATA yielded a switch fluorescence ratio of 0.969.
With GTGTTAGGA the switch fluorescence ratio was 1.
GTGTTATAG was tested, and the switch fluorescence ratio was 1.02.
GTGTTCGTTC was tested, and the switch fluorescence ratio was 1.01.
GTGTTCTCTT was tested, and the switch fluorescence ratio was 0.943.
